Source: US20050191730A1 (Regeneron, published 2005)
Changes are numbered by the printed parent chain. Names may count otherwise.

T1: human IL-4 (human, UniProt P05112 25-153)
T1 sequence (looked up): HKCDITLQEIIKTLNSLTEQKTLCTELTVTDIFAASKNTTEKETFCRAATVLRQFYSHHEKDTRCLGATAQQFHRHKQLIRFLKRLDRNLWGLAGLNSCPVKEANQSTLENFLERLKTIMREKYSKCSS

B1: IL-4/13 fusion polypeptide variant 2681 (Fc fusion)
chain: GNMKVLQEPTCVSDYMSISTCEWKMNGPTNCSTELRLLYQLVFYNSEAHTCIPENNGGAGCVCHLLMDDVVSADNYTLDLWAGQQLLWKGSFKPSEHVKPRAPGNLTVHTNVSDTLLLTWSNPYPPDNFLYNHLTYAVNIWSENDPAYSRIYNVTYLEPSLRIAASTLKSGISYRARVRAWAQSYNTTWSEWSPSTKWHNSYREPFEQAPTETQPPVTNLSVSVENLATVIWTWNPPEGASSNCSLWYFSHFGDKQDKKIAPETRRSIEVPLNERICLQVGSQCSTNESEKPSILVEKCISPPEGDPESAVTELQCIWHNLSYMKCSWLPGRNTSPDTNYTLYYWHRSLEKIHQCENIFREGQYFGCSFDLTKVKDSSFEQHSVQIMVKDNAGKIKPSFNIVPLTSRVKPDPPHIKNLSFHNDDLYVQWENPQNFISRCLFYEVEVNNSQTETHNVFYVQEAKCENPEFERNVENTSCFMVPGVLPDTLNTVRIRVKTNKLCYEDDKLWSNWSQEMSIGKKRNSTG[human IgG1 Fc omitted]
notes: L67Y, L68N, Y152F, D171Y, F172S from parent 1132; also called construct 2681
B2: IL-4/13 fusion polypeptide variant 2683 (Fc fusion)
chain: B1 chain with Y148D, S149F, S184A
B3: IL-4/13 fusion polypeptide variant 2601 (Fc fusion)
chain: B1 chain with Y44Q, N45S, Y148D, S149F
B4: IL-4/13 fusion polypeptide variant 2600 (Fc fusion)
chain: B1 chain with Y44L, N45L, F129Y, Y148D, S149F, A180I, A182I
B5: IL-4/13 fusion polypeptide variant 2595 (Fc fusion)
chain: B1 chain with S19I, Y44L, N45L, F129Y, Y148D, S149F
B6: IL-4/13 fusion polypeptide variant 2599 (Fc fusion)
chain: B1 chain with Y44L, N45L, F129Y, Y148D, S149F, A182I
B7: IL-4/13 fusion polypeptide variant 2708 (Fc fusion)
chain: B1 chain with L41Y, Y44L, N45L, F129Y, Y148D, S149F
B8: IL-4/13 fusion polypeptide variant 2596 (Fc fusion)
chain: B1 chain with Y44L, N45L, A82I, F129Y, Y148D, S149F
B9: IL-4/13 fusion polypeptide variant 2707 (Fc fusion)
chain: B1 chain with L41K, Y44L, N45L, F129Y, Y148D, S149F
B10: IL-4/13 fusion polypeptide variant 2597 (Fc fusion)
chain: B1 chain with Y44L, N45L, F129Y, Y148D, S149F, A176I
B11: IL-4/13 fusion polypeptide variant 2598 (Fc fusion)
chain: B1 chain with Y44L, N45L, F129Y, Y148D, S149F, A180I
B12: IL-4/13 fusion polypeptide variant 2561 (Fc fusion)
chain: B1 chain with Y44L, N45L, F129K, Y148D, S149F
B13: IL-4/13 fusion polypeptide variant 2675 (Fc fusion)
chain: B1 chain with L37K, Y44L, N45L, F129Y, Y148D, S149F
B14: IL-4/13 fusion polypeptide variant 2676 (Fc fusion)
chain: B1 chain with L37Q, Y44L, N45L, F129Y, Y148D, S149F
B15: IL-4/13 fusion polypeptide variant 2677 (Fc fusion)
chain: B1 chain with L37Y, Y44L, N45L, F129Y, Y148D, S149F
B16: IL-4/13 fusion polypeptide variant 2643 (Fc fusion)
chain: B1 chain with Y44L, N45L, E47G, F129Y, Y148D, S149F
B17: IL-4/13 fusion polypeptide variant 2646 (Fc fusion)
chain: B1 chain with Y44L, N45L, F129Y, Y148D, S149F, S166H, T167D, L168A, K169W
B18: IL-4/13 fusion polypeptide variant 2644 (Fc fusion)
chain: B1 chain with Y44L, N45L, E96T, F129Y, Y148D, S149F
B19: IL-4/13 fusion polypeptide variant 2547 (Fc fusion)
chain: B1 chain with Y44Q, N45S, F129Y, Y148D, S149F
B20: IL-4/13 fusion polypeptide variant 2560 (Fc fusion)
chain: B1 chain with Y44L, N45L, Y148D, S149F
B21: IL-4/13 fusion polypeptide variant 2647 (Fc fusion)
chain: B1 chain with Y44L, N45L, F129Y
B22: IL-4/13 fusion polypeptide variant 2586 (Fc fusion)
chain: B1 chain with Y44L, N45L, Y152H
B23: IL-4/13 fusion polypeptide variant 2558 (Fc fusion)
chain: B1 chain with Y44L, N45L, F129Y, Y152H, R175S
B24: IL-4/13 fusion polypeptide variant 2602 (Fc fusion)
chain: B1 chain with F129Y, Y148D, S149F
B25: IL-4/13 fusion polypeptide variant 2651 (Fc fusion)
chain: B1 chain with Y148D, S149F

What follows are binders tested against T2, human IL-13 (human, UniProt P35225 fragment, limits assumed) (assay: cell-based or functional assay).

Binder	IL-13 IC50 (pM), TF1 bioassay
B1	9 pM

Each binder was assayed against T1, human IL-4 (assay: cell-based or functional assay).

Binder	IL-4 Inhibition (fold vs parent 1132 IC50, TF1 bioassay, CHO supernatant)
B2	2.06 fold

Molecular target: T2, human IL-13
T2 sequence (P35225 35-146 limits assumed): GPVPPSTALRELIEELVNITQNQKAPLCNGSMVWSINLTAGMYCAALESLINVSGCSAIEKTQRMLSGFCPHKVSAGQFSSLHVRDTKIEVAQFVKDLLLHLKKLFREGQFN
Assay: cell-based or functional assay
Remark: another data set of the same source

Binder	IL-13 Inhibition (fold vs parent 1132 IC50, TF1 bioassay, CHO supernatant)
B2	1.03 fold

Molecular target: T1, human IL-4
Assay: cell-based or functional assay
Remark: another data set of the same source

Binder	IL-4 Inhibition (fold vs parent 1132 IC50, TF1 bioassay, CHO supernatant)
B3	0.31 fold
B4	0.68 fold
B5	0.15 fold
B6	0.33 fold
B7	0.04 fold
B8	1.12 fold
B9	0.04 fold
B10	0.27 fold
B11	0.22 fold
B12	0.16 fold

Molecular target: T2, human IL-13
Assay: cell-based or functional assay
Remark: another data set of the same source

Binder	IL-13 Inhibition (fold vs parent 1132 IC50, TF1 bioassay, CHO supernatant)
B3	0.77 fold
B4	0.06 fold
B5	0.15 fold
B13	0.46 fold
B6	0.16 fold
B8	0.44 fold
B14	0.23 fold
B10	0.27 fold
B11	0.1 fold
B15	0.43 fold
B12	0.15 fold

Molecular target: T1, human IL-4
Assay: cell-based or functional assay
Remark: another data set of the same source

Binder	IL-4 Inhibition (fold vs parent 1132 IC50, TF1 bioassay, CHO supernatant)
B16	< 0.1 fold
B17	< 0.1 fold
B18	0.36 fold

Molecular target: T2, human IL-13
Assay: cell-based or functional assay
Remark: another data set of the same source

Binder	IL-13 Inhibition (fold vs parent 1132 IC50, TF1 bioassay, CHO supernatant)
B16	0.27 fold
B17	0.05 fold
B18	0.21 fold

Molecular target: T1, human IL-4
Assay: cell-based or functional assay
Remark: another data set of the same source

Binder	IL-4 Inhibition (fold vs parent 1132 IC50, TF1 bioassay, CHO supernatant)
B3	0.31 fold

Molecular target: T2, human IL-13
Assay: cell-based or functional assay
Remark: another data set of the same source

Binder	IL-13 Inhibition (fold vs parent 1132 IC50, TF1 bioassay, CHO supernatant)
B3	0.77 fold

The binders below were run against T2, human IL-13 (assay: BIAcore, fusion captured by anti-human Fc, cytokine injected).

Binder	Kd
B19	2.73 pM
B20	2.09 pM
B21	5.09 pM
B22	2.17 pM
B23	1.63 pM
B1	4.96 pM
B24	3.01 pM
B25	4.26 pM
